Series [1] in a line: Acute toxicity in the rabbit by esophageal administration. Type of series: in vivo.
A short description of series [2]: Acute toxicity in female mice. The series is classed as in vivo, mouse.
Series [3] in a line: Subacute toxicity in the mouse, gastric gavage 15 days. The note with it: for Dead/Treated: 15 days; for SGPT: 24 hrs. after last dose.
Series [4] in a line: Acute toxicity in the rat.

This note sets out measurements from US4076815A, “Quinoxaline compound and composition, process for preparing compound, and method of combatting cholera therewith” (Istituto Chemioterapico Italiano, S.p.A., priority 1977, dated 1978).

Structures are written as SMILES.

Turning to `Nc1nccc(C=Cc2c[n+]([O-])c3ccccc3[n+]2[O-])n1` [CO-1, 2-[2-(2-amino-4-pyrimidinyl)ethenyl]-quinoxaline 1,4-dioxide], in series [1] (500 mg/kg, baseline), the “Body Weight Start” value was in the range of 2000 to 2100 g. Besides, the “dead out of treated animals within 4 days” value in series [1] (footnote to 2000 mg/kg) was “two dead out of seven treated animals”. In addition, the “Dead/Treated Animals after 7 days” value is listed as 0/18 in series [2] (endoperitoneal, 250 mg/kg); 6/12 in series [2] (endoperitoneal, 500 mg/kg); 6/6 in series [2] (endoperitoneal, 1000 mg/kg); 0/12 in series [2] (esophageal, 1000 mg/kg); 0/12 in series [2] (esophageal, 2000 mg/kg); 1/12 in series [2] (esophageal, 4000 mg/kg). Also, the “Dead/Treated Animals after 2 days” value in series [2] (endoperitoneal, 1000 mg/kg) was 6/6. Further, in series [2] (esophageal, 4000 mg/kg), the “Dead/Treated Animals after 4 days” value is 1/12. For the same compound, the Dead/Treated in series [3] (500 mg/kg/day oral) is given as 0/10; in series [3] (1 g/kg/day in H2O), 2/12; in series [3] (1 g/kg/day in adraganth gum), 3/12. For the same compound, the SGPT came out at 10 Units/ml in series [3] (CO-1 in adraganth gum) and 9 Units/ml in series [3] (CO-1 in water). Besides, the “Dead/Treated within 7 days (cumulative, regardless of sex)” value in series [4] (esophageal, 4000 mg/kg) is reported as 0/16; in series [4] (intraperitoneal, 500 mg/kg), 4/16.
